The source of these data is ChEMBL document CHEMBL1125856, “The Interaction of Anhydroalditols with Sweet-Almond -glucosidase and Escherichia coli -galactosidase: implications for the design of potent glycosidase inhibitors” (Bioorg Med Chem Lett, 1991).

Common to all, as to settings: Escherichia coli
Data set [1] relates to C[C@H]1OC[C@H](O)[C@@H](O)[C@H]1O. Description: (§1) Compound was evaluated for its Michaelis-Menten constant against E-coli Beta-galactosidase.
Data set [2] relates to OC[C@H]1OC[C@@H](O)[C@@H]1O. The data set is described as §1.
For data set [3], the system named is OC[C@H]1OC[C@@H](O)[C@H]1O. The data set is described as §1.
The subject of data set [4] is OC[C@H]1OC[C@H](O)[C@@H](O)[C@@H]1O. The description is as §1.
Data set [5] has as its system OC[C@H]1OC[C@H](O)[C@@H](O)[C@H]1O. Described as §1.
The test system of the next data set is O[C@@H]1COC[C@H]1O. Described as §1.
For data set [6], the system named is O[C@H]1[C@H](O)COC[C@@H]1O. The description is as §1.

With “Beta-galactosidase (Escherichia coli) (no sequence given)”, the Michaelis constant (Km) in data set [1] was 35.9 mM; in data set [2] it was 32.6 mM; in data set [3] it was 0.048 mM; in data set [4], 32.6 mM; in data set [5] it was 0.048 mM; in the data set with O[C@@H]1COC[C@H]1O, 15.2 mM. Moreover, in data set [6], the Km is 15.2 mM.
